Measurements from PMC9911399, “Two distinct binding modes provide the RNA-binding protein RbFox with extraordinary sequence specificity”.
Where a chain is given by its changes, count along the chain named. The list shows a part of the results.

T1: RBFOX1 RRM RbFoxmut (Fox-RRM*) (Homo sapiens, UniProt Q9NWB1 109-208, R118D;E147R;N151S;E152T)
T1 sequence: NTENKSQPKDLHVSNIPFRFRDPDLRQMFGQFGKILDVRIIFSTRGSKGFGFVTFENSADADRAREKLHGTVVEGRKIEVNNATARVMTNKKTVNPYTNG

B1: UCAAAGG (DNA:RNA)
RNA: GGGAGACCGGAAUUCAGAUUGUCCUCAAAGGUUAAAUCCCGUCGUAGCCACCA
DNA 1: CAATCTGAATTCCGGTCTCCC
DNA 2: TGGTGGCTACGACGGGATT
B2: GGUUGCU (DNA:RNA)
RNA: GGGAGACCGGAAUUCAGAUUGUCCGGUUGCUUUAAAUCCCGUCGUAGCCACCA
DNA 1: CAATCTGAATTCCGGTCTCCC
DNA 2: TGGTGGCTACGACGGGATT
B3: CGUUGCU (DNA:RNA)
RNA: B2 RNA with G25C
DNA 1: CAATCTGAATTCCGGTCTCCC
DNA 2: TGGTGGCTACGACGGGATT
B4: CUUUGCG (DNA:RNA)
RNA: B2 RNA with G25C, G26U, U31G
DNA 1: CAATCTGAATTCCGGTCTCCC
DNA 2: TGGTGGCTACGACGGGATT
B5: UUUGGCG (DNA:RNA)
RNA: B2 RNA with G25U, G26U, U28G, U31G
DNA 1: CAATCTGAATTCCGGTCTCCC
DNA 2: TGGTGGCTACGACGGGATT
B6: GUCGACA (DNA:RNA)
RNA: B2 RNA with G26U, U27C, U28G, G29A, U31A
DNA 1: CAATCTGAATTCCGGTCTCCC
DNA 2: TGGTGGCTACGACGGGATT
B7: GUUGCUA (DNA:RNA)
RNA: B2 RNA with G26U, U28G, G29C, C30U, U31A
DNA 1: CAATCTGAATTCCGGTCTCCC
DNA 2: TGGTGGCTACGACGGGATT
B8: CGUGGAA (DNA:RNA)
RNA: B2 RNA with G25C, U28G, C30A, U31A
DNA 1: CAATCTGAATTCCGGTCTCCC
DNA 2: TGGTGGCTACGACGGGATT
B9: UGCCUGA (DNA:RNA)
RNA: B1 RNA with C26G, A27C, A28C, A29U, G31A
DNA 1: CAATCTGAATTCCGGTCTCCC
DNA 2: TGGTGGCTACGACGGGATT
B10: UACAUUU (DNA:RNA)
RNA: B1 RNA with C26A, A27C, A29U, G30U, G31U
DNA 1: CAATCTGAATTCCGGTCTCCC
DNA 2: TGGTGGCTACGACGGGATT
B11: UACAAUA (DNA:RNA)
RNA: B1 RNA with C26A, A27C, G30U, G31A
DNA 1: CAATCTGAATTCCGGTCTCCC
DNA 2: TGGTGGCTACGACGGGATT
B12: GCAUACA (DNA:RNA)
RNA: B2 RNA with G26C, U27A, G29A, U31A
DNA 1: CAATCTGAATTCCGGTCTCCC
DNA 2: TGGTGGCTACGACGGGATT
B13: UGACGUU (DNA:RNA)
RNA: B2 RNA with G25U, U27A, U28C, C30U
DNA 1: CAATCTGAATTCCGGTCTCCC
DNA 2: TGGTGGCTACGACGGGATT
B14: AUCAUGU (DNA:RNA)
RNA: B1 RNA with U25A, C26U, A27C, A29U, G31U
DNA 1: CAATCTGAATTCCGGTCTCCC
DNA 2: TGGTGGCTACGACGGGATT
B15: CAAGGGG (DNA:RNA)
RNA: B1 RNA with U25C, C26A, A28G, A29G
DNA 1: CAATCTGAATTCCGGTCTCCC
DNA 2: TGGTGGCTACGACGGGATT
B16: CGGACCA (DNA:RNA)
RNA: B2 RNA with G25C, U27G, U28A, G29C, U31A
DNA 1: CAATCTGAATTCCGGTCTCCC
DNA 2: TGGTGGCTACGACGGGATT
B17: GAAGGAA (DNA:RNA)
RNA: B2 RNA with G26A, U27A, U28G, C30A, U31A
DNA 1: CAATCTGAATTCCGGTCTCCC
DNA 2: TGGTGGCTACGACGGGATT
B18: UAGAUCU (DNA:RNA)
RNA: B2 RNA with G25U, G26A, U27G, U28A, G29U
DNA 1: CAATCTGAATTCCGGTCTCCC
DNA 2: TGGTGGCTACGACGGGATT
B19: UUCACCA (DNA:RNA)
RNA: B1 RNA with C26U, A27C, A29C, G30C, G31A
DNA 1: CAATCTGAATTCCGGTCTCCC
DNA 2: TGGTGGCTACGACGGGATT
B20: ACACCGG (DNA:RNA)
RNA: B1 RNA with U25A, A28C, A29C
DNA 1: CAATCTGAATTCCGGTCTCCC
DNA 2: TGGTGGCTACGACGGGATT
B21: AGUAUGC (DNA:RNA)
RNA: B2 RNA with G25A, U28A, G29U, C30G, U31C
DNA 1: CAATCTGAATTCCGGTCTCCC
DNA 2: TGGTGGCTACGACGGGATT
B22: GAUCAGA (DNA:RNA)
RNA: B2 RNA with G26A, U28C, G29A, C30G, U31A
DNA 1: CAATCTGAATTCCGGTCTCCC
DNA 2: TGGTGGCTACGACGGGATT
B23: UUUGAGG (DNA:RNA)
RNA: B1 RNA with C26U, A27U, A28G
DNA 1: CAATCTGAATTCCGGTCTCCC
DNA 2: TGGTGGCTACGACGGGATT
B24: GAGCACC (DNA:RNA)
RNA: B2 RNA with G26A, U27G, U28C, G29A, U31C
DNA 1: CAATCTGAATTCCGGTCTCCC
DNA 2: TGGTGGCTACGACGGGATT
B25: GGGAGAU (DNA:RNA)
RNA: B2 RNA with U27G, U28A, C30A
DNA 1: CAATCTGAATTCCGGTCTCCC
DNA 2: TGGTGGCTACGACGGGATT
B26: AACACUU (DNA:RNA)
RNA: B2 RNA with G25A, G26A, U27C, U28A, G29C, C30U
DNA 1: CAATCTGAATTCCGGTCTCCC
DNA 2: TGGTGGCTACGACGGGATT
B27: UGAGUCU (DNA:RNA)
RNA: B2 RNA with G25U, U27A, U28G, G29U
DNA 1: CAATCTGAATTCCGGTCTCCC
DNA 2: TGGTGGCTACGACGGGATT
B28: GAUUUAC (DNA:RNA)
RNA: B2 RNA with G26A, G29U, C30A, U31C
DNA 1: CAATCTGAATTCCGGTCTCCC
DNA 2: TGGTGGCTACGACGGGATT
B29: ACCGGGG (DNA:RNA)
RNA: B1 RNA with U25A, A27C, A28G, A29G
DNA 1: CAATCTGAATTCCGGTCTCCC
DNA 2: TGGTGGCTACGACGGGATT
B30: UCCUAAG (DNA:RNA)
RNA: B1 RNA with A27C, A28U, G30A
DNA 1: CAATCTGAATTCCGGTCTCCC
DNA 2: TGGTGGCTACGACGGGATT
B31: CAGUACU (DNA:RNA)
RNA: B2 RNA with G25C, G26A, U27G, G29A
DNA 1: CAATCTGAATTCCGGTCTCCC
DNA 2: TGGTGGCTACGACGGGATT

target: T1, RBFOX1 RRM RbFoxmut (Fox-RRM*); experiment: EMSA; HiTS-Eq, 1 nM pool, 10 min; buffer printed only for the single-RNA assays: 10 mM Tris pH 7.5, 150 mM NaCl, 3.4 mM EDTA, 0.001% NP-40, 30 C; conditions: tags: His6 N-terminal (pET28a); label: 5' 32P
Method in brief: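 A pool of RNA with 7 randomized nucleotides, 5′-radiolabelled and with DNA-annealed flanks, was equilibrated at 1 nM for 10 min in 50 µL with purified RbFox RRM, wild type or mutant, across increasing protein concentrations. Free RNA was separated by 8% native PAGE, excised, reverse-transcribed, barcoded by PCR and sequenced. Relative association constants were obtained from read-count changes of each RNA species versus the control reaction and normalised to the cognate motif.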

Point of comparison: B18, binding signal 0.0767 KA relative to UGCAUGU. Against it:
- B1 — higher, 0.0769 KA relative to UGCAUGU
- B2 — higher, 0.11 KA relative to UGCAUGU
- B3 — higher, 0.109 KA relative to UGCAUGU
- B4 — higher, 0.147 KA relative to UGCAUGU
- B5 — higher, 0.132 KA relative to UGCAUGU
- B6 — lower, 0.0624 KA relative to UGCAUGU
- B7 — higher, 0.14 KA relative to UGCAUGU
- B8 — higher, 0.153 KA relative to UGCAUGU
- B9 — higher, 0.158 KA relative to UGCAUGU
- B10 — higher, 0.0855 KA relative to UGCAUGU
- B11 — lower, 0.063 KA relative to UGCAUGU
- B12 — higher, 0.144 KA relative to UGCAUGU
- B13 — higher, 0.0909 KA relative to UGCAUGU
- B14 — higher, 0.167 KA relative to UGCAUGU
- B15 — lower, 0.0606 KA relative to UGCAUGU
- B16 — lower, 0.0692 KA relative to UGCAUGU
- B17 — higher, 0.0907 KA relative to UGCAUGU
- B19 — higher, 0.0905 KA relative to UGCAUGU
- B20 — higher, 0.0774 KA relative to UGCAUGU
- B21 — higher, 0.274 KA relative to UGCAUGU
- B22 — lower, 0.0661 KA relative to UGCAUGU
- B23 — higher, 0.0855 KA relative to UGCAUGU
- B24 — higher, 0.0864 KA relative to UGCAUGU
- B25 — higher, 0.0959 KA relative to UGCAUGU
- B26 — lower, 0.0596 KA relative to UGCAUGU
- B27 — higher, 0.119 KA relative to UGCAUGU
- B28 — lower, 0.0641 KA relative to UGCAUGU
- B29 — higher, 0.0951 KA relative to UGCAUGU
- B30 — higher, 0.0925 KA relative to UGCAUGU
- B31 — higher, 0.0898 KA relative to UGCAUGU
